As a reminder, the AC50 is the midpoint of the concentration-response curve, whichever way the signal moves.

The nature of the assay: qHTS Assay for Lipid Storage Modulators (AID 1519). The settings on record: Drosophila S3 cells, BODIPY lipid droplet/cell ratio, laser cytometry, cells loaded with oleic acid. In short, it runs like this: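 Cells seeded at 5,000 per well were treated with compounds over a concentration series and loaded with oleic acid (400 uM, as added). Lipid droplet fluorescence (488 nm excitation, 500-530 nm channel) was read by laser-scanning cytometry and normalized to 20 uM Triacsin C.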

Where [1] appears, read: measured here: cell count channel max response.
The mark [2] stands for this setting: measured here: lipid channel max response.
Where [3] appears, read: measured here: cell number channel AC50.
Where [4] appears, read: measured here: lipid (BODIPY) channel AC50.

This is one part of the list. Further columns of the screen follow, without active or inactive calls. Compounds called inactive in the main read-out are mostly missing here. Potencies come from curve fits of mixed quality, noted in brackets.
Tags tell the direction and shape of the fitted curve.

In the case of `COc1cc(CCN)ccc1O`, the max response runs as follows: under setting [1], 54.7%; under setting [2], 55.7%.
The like results for `CC(=O)OCC1=C(C(=O)[O-])N2C(=O)[C@@H](NC(=O)CCC[C@@H](N)C(=O)[O-])[C@H]2SC1.[Zn+2]` were, in that order, 38.8% and 40.4%.
As to `N[C@@H](Cn1oc(=O)[nH]c1=O)C(=O)O`, the max response worked out at 23.8% under setting [1] and 20.6% under setting [2]. Besides, under setting [3], the AC50 was 0.0112 µM [falling, full curve, poor fit].
`OCC1OC(n2cnc3cc(Cl)c(Cl)cc32)C(O)C1O` (stereo unspecified): the max response reads like this: under setting [1], -5.73%; under setting [2], -0.897%. The half-maximal activity concentration (AC50) under setting [4] was 3.98 µM [rising, partial curve].
Consider `C[C@]12CCC3C(CC[C@]4(O)C[C@@H](O)CC[C@]34C=O)[C@@]1(O)CC[C@@H]2C1=CC(=O)OC1` (stereo partly specified), for which the max response under setting [1] was determined as 12.5% and the max response under setting [2] turned out to be 37.3%.
For `C[C@H]1C2Cc3ccc(O)cc3[C@]1(C)CCN2CC1CC1`, in that order: 51.8% and 52.1%.
On to `O=C(NCC1CCCCN1)c1cc(OCC(F)(F)F)ccc1OCC(F)(F)F` (stereo unspecified), for which the max response under setting [1] worked out at 57.6% and the max response under setting [2] is 58.3%.
Turning to `O=C1C2CCN(CC2)C1(CO)CO`, the max response was -23.7% under setting [1] and -30% under setting [2]. Moreover, the AC50 under setting [4] was 0.0251 µM [falling, full curve, poor fit].
With `O=C1NCN(c2ccccc2)C12CCN(C[C@H]1COc3ccccc3O1)CC2`, the max response reads like this: under setting [1], 61.9%; under setting [2], 79.4%.
The like results for `CO[C@H]1CC=C2CCN3CCC4=C(CC(=O)OC4)[C@]23C1` were, in that order, 36.3% and 38.4%.
As to `CC1(C)C(C(Cl)Cl)C2(Cl)C(Cl)C(Cl)C1(Cl)C2(Cl)Cl` (stereo unspecified), the max response by setting is: under setting [1], 29.4%; under setting [2], 48.6%. In addition, the half-maximal activity concentration (AC50) under setting [4] was 22.4 µM [rising, partial curve, poor fit].
As for `C=C(C)C1Cc2c(ccc3c(=O)c4c(oc23)COc2cc(OC)c(OC)cc2-4)O1` (stereo unspecified), the max response stood at 22.2% under setting [1] and 31.9% under setting [2]. Also, the AC50 under setting [4] was 14.1 µM [rising, partial curve].
As for `C[N+]1(C)C2CCC1CC(OC(=O)C(CO)c1ccccc1)C2` (stereo unspecified), the max response stood at 54% under setting [1] and 43% under setting [2].
`COC[C@H]1OC(=O)c2coc3c2[C@@]1(C)C1=C(C3=O)[C@H]2CCC(=O)[C@@]2(C)C[C@H]1OC(C)=O`: the max response came to 40.8% under setting [1] and 29% under setting [2]. Under setting [3], the concentration at half-maximal activity (AC50) is 10 µM [rising, partial curve, poor fit].
Take `CNC(=O)OCC[N+](C)(C)C`: the max response stood at 52.9% under setting [1] and 51.7% under setting [2].
For `CCCN(CCC)C1CCc2ccc(O)cc2C1` (stereo unspecified), in that order: 40.5% and 41%.
Regarding `COC(C)C(O)(C(=O)OC1=CCN2CC[C@H](O)[C@H]12)C(C)C` (stereo partly specified), the max response runs as follows: under setting [1], -29.2%; under setting [2], -35%. The AC50 under setting [4] was 31.6 µM [falling, partial curve, poor fit].
As for `CC[C@]1(O)C(=O)OCc2c1cc1n(c2=O)Cc2cc3ccccc3nc2-1`, the max response is, setting by setting: under setting [1], 64.3%; under setting [2], 64.8%.
For the compound `NC(N)=NN=Cc1c(Cl)cccc1Cl`, the max response reads like this: under setting [1], 67%; under setting [2], 90.1%.
For the compound `CN1CC[C@@H]2CN3CCc4cccc(c43)[C@H]2C1`, the max response reads like this: under setting [1], 55.6%; under setting [2], 88.3%.
As for `C#CCN[C@H](C)Cc1ccccc1`, the max response runs as follows: under setting [1], 31.5%; under setting [2], 34.5%.
For the compound `O=c1cccc2n1CC1CC2CN2CCCC[C@H]12` (stereo partly specified), the max response under setting [1] was -15.2% and the max response under setting [2] amounted to 8.77%. For the same compound, the AC50 under setting [3] was 0.000891 µM [falling, full curve, poor fit].
As for `NCc1cc(=O)[nH]o1`, the max response reads like this: under setting [1], 48.6%; under setting [2], 50.5%.
Take `CNC(=O)Oc1ccc2c(c1)C1(C)CCN(C)C1N2C` (stereo unspecified): the max response runs as follows: under setting [1], 15.6%; under setting [2], 17.9%. Besides, under setting [4], the AC50 was 14.1 µM [rising, single point].
`N#Cc1cccc(NC(=O)N2CCCC3(CCN(C(=O)Oc4ccccc4)CC3)C2)c1`: the max response reads like this: under setting [1], 11.9%; under setting [2], 27.8%. The AC50 under setting [4] is 0.447 µM [rising, full curve, poor fit].
For the compound `CCCN1CCCC2Cc3[nH]ncc3CC21` (stereo unspecified), the max response by setting is: under setting [1], 33.4%; under setting [2], 33.2%.
Take `CC[C@@H](CO)NC(=O)[C@H]1C=C2c3cccc4[nH]cc(c34)C[C@H]2N(C)C1`: the max response was found to be 44.9% under setting [1] and 62% under setting [2].
The like results for `Oc1ccc2c3c1O[C@H]1[C@@H](O)CC[C@@]4(O)C(C2)N(CC2CCC2)CCC314` (stereo partly specified) were, in that order, 38.2% and 40.3%.
The like results for `NCCc1c[nH]c2ccc(C(N)=O)cc12` were, in that order, 63.9% and 66.6%.
Regarding `CC(C)(Cc1c[nH]c2ccc(Cl)cc12)NCCOc1ccccc1OCC1CC1`, the max response under setting [1] was -47.8% and the max response under setting [2] is -106%.
In the case of `CC(C)(C)c1o[nH]c(=O)c1CC(N)C(=O)O` (stereo unspecified), the max response by setting is: under setting [1], 31.1%; under setting [2], 27.6%.
Regarding `CC[C@@H]1CN2CCc3cc(OC)c(OC)cc3[C@H]2C[C@@H]1C[C@@H]1NCCc2cc(O)c(OC)cc21`, the max response under setting [1] is -27.1% and the max response under setting [2] was -53.7%.
Regarding `CN(C)C1C(=O)C(C(N)=O)=C(O)[C@@]2(O)C(=O)C3=C(O)c4c(O)ccc(Cl)c4[C@](C)(O)C3CC12` (stereo partly specified), the max response by setting is: under setting [1], 22.1%; under setting [2], 47.4%. The AC50 under setting [4] is 10 µM [rising, partial curve].
For the compound `S=C=Nc1cccc(C2(N3CCCCC3)CCCCC2)c1`, the max response stood at 62.9% under setting [1] and 80.6% under setting [2].
For `CCNC(=O)[C@H]1O[C@@H](n2cnc3c(N)ncnc32)[C@H](O)[C@H]1O`, the max response stood at 43.9% under setting [1] and 45.7% under setting [2].

The values are drawn from PubChem BioAssay (NCATS).
